{"source": "paper PMC4336329", "about": "(PLoS ONE, 2015)", "note": "Screen size: about 310,000 compounds; about 14,000 (4.5%) showed an effect of 50% or more. Effects have a minus sign here. The list shows a part of the results.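 Note: peak tail current of the secondary pulse compared with the same well before compound.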", "data": [{"target": "human ether-à-go-go-related gene (hERG) potassium channel (human, UniProt Q12809)", "sequence (Q12809 whole entry, looked up)": "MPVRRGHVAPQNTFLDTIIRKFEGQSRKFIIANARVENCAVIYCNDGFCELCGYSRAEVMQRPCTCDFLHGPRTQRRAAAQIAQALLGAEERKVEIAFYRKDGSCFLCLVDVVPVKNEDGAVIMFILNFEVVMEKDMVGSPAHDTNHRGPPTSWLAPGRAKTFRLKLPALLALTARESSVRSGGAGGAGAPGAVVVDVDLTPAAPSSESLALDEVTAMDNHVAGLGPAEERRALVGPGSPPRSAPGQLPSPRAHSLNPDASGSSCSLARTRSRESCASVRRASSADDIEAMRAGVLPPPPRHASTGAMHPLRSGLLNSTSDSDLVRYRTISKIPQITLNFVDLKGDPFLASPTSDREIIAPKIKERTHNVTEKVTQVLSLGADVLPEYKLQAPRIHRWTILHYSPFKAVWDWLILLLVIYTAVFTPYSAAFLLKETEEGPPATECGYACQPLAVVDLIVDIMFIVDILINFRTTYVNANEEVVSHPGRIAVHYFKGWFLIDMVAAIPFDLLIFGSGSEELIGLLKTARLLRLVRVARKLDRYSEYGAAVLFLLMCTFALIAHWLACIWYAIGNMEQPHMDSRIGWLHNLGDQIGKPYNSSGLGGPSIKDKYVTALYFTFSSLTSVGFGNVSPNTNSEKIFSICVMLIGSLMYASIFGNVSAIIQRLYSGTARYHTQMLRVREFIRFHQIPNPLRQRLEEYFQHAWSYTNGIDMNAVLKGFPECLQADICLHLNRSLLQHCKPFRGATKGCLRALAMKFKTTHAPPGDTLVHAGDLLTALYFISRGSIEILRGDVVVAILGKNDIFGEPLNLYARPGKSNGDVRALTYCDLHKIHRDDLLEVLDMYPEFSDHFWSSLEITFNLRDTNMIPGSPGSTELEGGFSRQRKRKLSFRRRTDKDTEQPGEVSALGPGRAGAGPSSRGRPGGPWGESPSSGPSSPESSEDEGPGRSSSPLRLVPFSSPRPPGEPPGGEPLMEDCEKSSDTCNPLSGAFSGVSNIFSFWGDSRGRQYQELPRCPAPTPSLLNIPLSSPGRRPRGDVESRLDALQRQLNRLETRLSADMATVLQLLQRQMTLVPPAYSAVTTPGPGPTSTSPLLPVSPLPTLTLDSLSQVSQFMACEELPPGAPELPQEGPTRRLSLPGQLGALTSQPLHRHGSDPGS", "assay": "primary screen, population patch clamp on CHO cells stably expressing hERG", "units": {"hERG current change (%, negative = inhibition) at 10uM": "%"}, "values": [{"smiles": "OCCNc1nc(C2CC2)nc2c1nnn2Cc1ccccc1Cl", "hERG current change (%, negative = inhibition) at 10uM": -0.392}, {"smiles": "Cc1cc(C(=O)N/N=C/c2cccc(Cl)c2Cl)no1", "hERG current change (%, negative = inhibition) at 10uM": -2.72}, {"smiles": "COc1ccc(OC)c(S(=O)(=O)N(C)CC(=O)Nc2cc(Cl)ccc2OC)c1", "hERG current change (%, negative = inhibition) at 10uM": -27.2}, {"smiles": "COc1ccccc1CNC(=O)CCc1c(C)nc2cc(-c3ccccc3OC)nn2c1C", "hERG current change (%, negative = inhibition) at 10uM": -11.5}, {"smiles": "CN(C)CCCn1c(SCC(=O)Nc2nccs2)nnc1-c1ccncc1", "hERG current change (%, negative = inhibition) at 10uM": 24.2}, {"smiles": "Cl.c1ccc(OCCN2C3=NCCN3c3ccccc32)cc1", "hERG current change (%, negative = inhibition) at 10uM": -73.3}, {"smiles": "Cc1onc(-c2ccccc2)c1C(=O)N/N=C/c1ccco1", "hERG current change (%, negative = inhibition) at 10uM": 7.72}, {"smiles": "CCCCS(=O)(=O)/C=C\\C=C/S(=O)(=O)CCCC", "hERG current change (%, negative = inhibition) at 10uM": -23.9}, {"smiles": "Cc1onc(-c2ccccc2)c1C(=O)NC(=S)NNC(=O)c1ccco1", "hERG current change (%, negative = inhibition) at 10uM": 15.9}, {"smiles": "Cc1sc2ncn(Cc3ccccc3F)c(=O)c2c1C", "hERG current change (%, negative = inhibition) at 10uM": -35.8}, {"smiles": "CC(=O)Oc1ccc2oc(-c3ccccc3)c(C(N)=O)c2c1", "hERG current change (%, negative = inhibition) at 10uM": -14.1}, {"smiles": "O=C(C1CCCN(S(=O)(=O)c2cccnc2)C1)N1CCn2c1nc1ccccc12", "note": "(stereo not drawn)", "hERG current change (%, negative = inhibition) at 10uM": -15.3}, {"smiles": "C=Cn1ccnc1P(=S)(c1ccc2c(c1)c1ccccc1n2CC)c1nccn1C=C", "hERG current change (%, negative = inhibition) at 10uM": -5.65}, {"smiles": "Cc1ccc(Oc2ccc(NC(=O)C3=CC=CN4CCS(=O)(=O)N=C34)cc2)cc1", "hERG current change (%, negative = inhibition) at 10uM": -7.39}, {"smiles": "Cc1ccc(NC(=O)Nc2cccnc2)cc1", "hERG current change (%, negative = inhibition) at 10uM": -15}, {"smiles": "COc1ccccc1OCc1nnc(SCC(=O)Nc2ccc(C)cc2)n1C", "hERG current change (%, negative = inhibition) at 10uM": -10.7}, {"smiles": "COCCN(C(=O)CSc1nc2ccccc2c(=O)n1CC(C)C)c1c(N)n(Cc2ccccc2)c(=O)[nH]c1=O", "hERG current change (%, negative = inhibition) at 10uM": -32}, {"smiles": "CCOc1ccccc1C(=O)Nc1c[nH]c(=O)[nH]c1=O", "hERG current change (%, negative = inhibition) at 10uM": 15}, {"smiles": "CS(=O)(=O)c1ccc([C@@H](O)[C@@H](CF)NC(=O)C(Cl)Cl)cc1", "hERG current change (%, negative = inhibition) at 10uM": -5.39}, {"smiles": "C/C(=N\\NC(=O)c1cc(-c2cccnc2)nc2ccccc12)c1ccccc1O", "hERG current change (%, negative = inhibition) at 10uM": 0.355}, {"smiles": "COC(=O)c1ccc(CSc2nc3sc(C)c(C)c3c(=O)[nH]2)cc1", "hERG current change (%, negative = inhibition) at 10uM": 0.764}, {"smiles": "CCN(CC)C(=O)C1CCCN(c2ncnc3c2cnn3-c2ccc(Cl)cc2)C1", "note": "(stereo not drawn)", "hERG current change (%, negative = inhibition) at 10uM": -38.5}, {"smiles": "COc1ccc(NS(=O)(=O)c2cccs2)cn1", "hERG current change (%, negative = inhibition) at 10uM": -0.608}, {"smiles": "COc1ccc(C)cc1NC(=O)CN1CCN(c2ccc(F)cc2)CC1", "hERG current change (%, negative = inhibition) at 10uM": -50.4}, {"smiles": "CCC(C)[C@H](NC(=O)NCCC1=CCCCC1)C(=O)OC", "note": "(stereo partly drawn)", "hERG current change (%, negative = inhibition) at 10uM": -2.24}, {"smiles": "CCc1cc(=O)oc2cc(C)cc(OC(C)C(=O)O)c12", "note": "(stereo not drawn)", "hERG current change (%, negative = inhibition) at 10uM": -2.21}, {"smiles": "COc1cc2c(cc1OC)CN(C(=S)Nc1ccccc1Cl)CC2", "hERG current change (%, negative = inhibition) at 10uM": 8.88}, {"smiles": "O=C(OCC(=O)N1CCN(C(=O)c2ccco2)CC1)c1ccccc1C(=O)c1ccccc1", "hERG current change (%, negative = inhibition) at 10uM": -34}, {"smiles": "CNc1nc(C23CC4CC(CC(C4)C2)C3)cs1", "hERG current change (%, negative = inhibition) at 10uM": 33.1}, {"smiles": "Cc1ccc(/C=N/NC(=O)Cn2ccc(C(F)(F)F)n2)o1", "hERG current change (%, negative = inhibition) at 10uM": 12.8}, {"smiles": "COC(=O)c1cccc(NC(=S)NCc2ccc(F)cc2)c1", "hERG current change (%, negative = inhibition) at 10uM": -3.94}, {"smiles": "Cc1sc2ncnc(-n3cnc4ccccc43)c2c1C", "hERG current change (%, negative = inhibition) at 10uM": 2.29}, {"smiles": "O=S(=O)(Nc1ccc(S(=O)(=O)Nc2ccccc2)cc1)c1ccccc1", "hERG current change (%, negative = inhibition) at 10uM": -25}, {"smiles": "COc1cccc(C(=O)N2CCN(C(=O)c3cccc4ccccc34)CC2)c1OC", "hERG current change (%, negative = inhibition) at 10uM": -2.48}, {"smiles": "COc1cccc(NC(=O)CN(C)C(=O)CNC(=O)c2ccccc2F)c1", "hERG current change (%, negative = inhibition) at 10uM": 16.4}, {"smiles": "CCC(CO)Oc1cc(NC(=O)c2ccc(C)cc2)c2ncn(C(C)C)c2c1", "note": "(stereo not drawn)", "hERG current change (%, negative = inhibition) at 10uM": -3.36}, {"smiles": "Cc1cc(C)n(C(=O)c2ccc(C)c(Br)c2)n1", "hERG current change (%, negative = inhibition) at 10uM": 27.7}, {"smiles": "Cc1cc(Cl)ccc1OC(C)C(=O)NC(C)C1CCCO1", "note": "(stereo not drawn)", "hERG current change (%, negative = inhibition) at 10uM": -6.42}, {"smiles": "COC(=O)c1ccc(N2OC3(C)C=CC2CC3)cc1", "note": "(stereo not drawn)", "hERG current change (%, negative = inhibition) at 10uM": 10.9}, {"smiles": "CC(C)CCCN1C(N(C)C)=NC[C@@H]1Cc1ccccc1", "hERG current change (%, negative = inhibition) at 10uM": -24.9}, {"smiles": "Nc1nc(N2CCN(c3ccccc3)CC2)n[nH]1", "hERG current change (%, negative = inhibition) at 10uM": 4.2}, {"smiles": "Fc1ccc(CNCCc2ccc3c(c2)OCO3)cc1", "hERG current change (%, negative = inhibition) at 10uM": -3.52}, {"smiles": "O=S(=O)(c1ccc(F)cc1)N1CCC(O)(c2ccc3c(c2)OCO3)CC1", "hERG current change (%, negative = inhibition) at 10uM": -42}, {"smiles": "CC(C)=C1SC(N2CCOCC2)=NC1=O", "hERG current change (%, negative = inhibition) at 10uM": 14}, {"smiles": "O=C(C[n+]1ccc(C(=O)NCc2ccccc2)cc1)c1ccc(OC(F)F)cc1.[Br-]", "hERG current change (%, negative = inhibition) at 10uM": -92.8}]}]}
